Reference: patent US10407421B2, “Bicyclic aryl monobactam compounds and methods of use thereof for the treatment of bacterial infections” (priority 2016, dated 2019)
The name of at least one read-out is uncertain.

Tests used:
Assay type in all cases: cell-based
Conditions in all cases: in the presence of β lactamase inhibitor Relebactam 4 μg/mL; 22 hours at 35±2° C.; lowest concentration inhibiting 95% of growth (OD600)
[1] = tested on: Acinetobacter baumannii expressing TEM-1, AmpC, and Oxa-24/40 (CL6188); test: Growth inhibitory concentration (OD600), Acinetobacter baumannii CL6188
[2] = tested on: Escherichia coli expressing NDM-1 (CLB30016); test: Growth inhibitory concentration (OD600), Escherichia coli CLB30016
[3] = tested on: Klebsiella pneumoniae expressing KPC-1 (CL6569); test: Growth inhibitory concentration (OD600), Klebsiella pneumoniae CL6569
[4] = tested on: Pseudomonas aeruginosa expressing AmpC (CL5701); test: Growth inhibitory concentration (OD600), Pseudomonas aeruginosa CL5701

Question: `CC1(C)[C@H](NC(=O)/C(=N\O[C@@H](COc2ccc3nc(N(CCCN)CC4CNC4)ccc3c2)C(=O)O)c2csc(N)n2)C(=O)N1OS(=O)(=O)O` [Example 72, (S)-3-((2-((3-aminopropyl)(azetidin-3-ylmethyl)amino)quinolin-6-yl)oxy)-2-((((Z)-1-(2-aminothiazol-4-yl)-2-(((S)-2,2-dimethyl-4-oxo-1-(sulfooxy)azetidin-3-yl)amino)-2-oxoethylidene)amino)oxy)propanoic Acid] was tested. Which “AB_CL6188 MITC95” value [1] did it give?
Answer: 1.56 µM

Question: And the “EC_CLB30016 MITC95” value [2]?
Answer: 1.56 µM

Question: And the “KP_CL6569 MITC95” value [3]?
Answer: 0.098 µM

Question: And the “PA_CL5701 MITC95” value [4]?
Answer: 1.56 µM

Question: For `CC1(C)[C@H](NC(=O)/C(=N\O[C@@H](COc2ccc3nc(NCC4CNC4)cc(N)c3c2)C(=O)O)c2csc(N)n2)C(=O)N1OS(=O)(=O)O` [Example 73, (S)-3-((4-amino-2-((azetidin-3-ylmethyl)amino)quinolin-6-yl)oxy)-2-((((Z)-1-(2-aminothiazol-4-yl)-2-(((S)-2,2-dimethyl-4-oxo-1-(sulfooxy)azetidin-3-yl)amino)-2-oxoethylidene)amino)oxy)propanoic Acid], which “AB_CL6188 MITC95” value [1] is on record?
Answer: 3.13 µM

Question: And the “EC_CLB30016 MITC95” value [2]?
Answer: 3.13 µM

Question: And the “KP_CL6569 MITC95” value [3]?
Answer: 0.39 µM

Question: And the “PA_CL5701 MITC95” value [4]?
Answer: 3.13 µM
